Results are given in words; binding and its absence hold for the method and conditions named. Binding seen in cells or lysates may run through a third protein. Some results given as binding are weak or reduced against the parent protein; the word gives no strength. For part of these data: Sequences can lack the tags named with a protein.
What was measured:
[1] = molecular target: EP2 receptor, endogenous in mouse resident peritoneal macrophages (mouse (endogenous in RPM)) (UniProt Q62053); experiment: co-IP; endogenous EP2 precipitated from RIPA lysate of freshly isolated mouse RPM with anti-EP2 (Abcam ab167171) overnight at 4 °C and A/G-Sepharose beads; IgG and GPRC5B-KO as negative controls
[2] = molecular target: C-terminally FLAG/Myc-tagged GPRC5B (G Protein-Coupled Receptor Class C Group 5 Member B), human (human) (UniProt Q9NZH0); experiment: co-IP; HEK cells co-transfected with GPRC5B-FLAG/Myc and HA-tagged receptors; RIPA lysate; precipitation with anti-FLAG magnetic beads, 4 °C, 2 h; blot for HA and FLAG
[3] = molecular target: EP2 receptor C-terminally tagged with mTurquoise2, human (human) (UniProt P43116); experiment: FRET or BRET; initial FRET (emission ratio mCit/mTq2) in single transiently transfected HEK293T cells; EP2-mTurq2 donor, mCitrine-tagged receptors as acceptors
[4] = molecular target: N-terminally HA-tagged PGD2 receptor DP1, human (human) (UniProt Q13258); experiment: co-IP; HEK cells co-transfected with FLAG/Myc-tagged GPRC5B (wild type or mutant) and HA-tagged receptors; RIPA lysate; precipitation with anti-HA magnetic beads, 4 °C, 2 h; blot for HA and FLAG
[5] = molecular target: T1, N-terminally HA-tagged prostaglandin E2 receptor EP1, human (human) (UniProt P34995); experiment: as above
T1 sequence: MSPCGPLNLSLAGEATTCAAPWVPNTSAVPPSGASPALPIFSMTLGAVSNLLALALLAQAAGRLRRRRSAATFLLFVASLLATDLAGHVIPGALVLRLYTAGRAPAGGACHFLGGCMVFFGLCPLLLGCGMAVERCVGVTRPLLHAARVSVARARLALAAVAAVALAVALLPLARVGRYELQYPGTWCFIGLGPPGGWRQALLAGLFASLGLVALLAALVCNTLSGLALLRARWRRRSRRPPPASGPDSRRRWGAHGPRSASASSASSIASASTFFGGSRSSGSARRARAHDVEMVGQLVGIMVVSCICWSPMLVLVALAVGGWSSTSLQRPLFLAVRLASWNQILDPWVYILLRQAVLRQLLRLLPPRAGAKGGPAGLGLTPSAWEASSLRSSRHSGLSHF

The chains behind the UniProt entries cited, without tags or fusion partners. Where a name states a change or a piece, a line headed by the entry shows the natural chain unless it says otherwise. A line that says so, or that is headed by a name, gives the form on record, which may keep a tag or linker. Residues count along the entry.
UniProt Q62053: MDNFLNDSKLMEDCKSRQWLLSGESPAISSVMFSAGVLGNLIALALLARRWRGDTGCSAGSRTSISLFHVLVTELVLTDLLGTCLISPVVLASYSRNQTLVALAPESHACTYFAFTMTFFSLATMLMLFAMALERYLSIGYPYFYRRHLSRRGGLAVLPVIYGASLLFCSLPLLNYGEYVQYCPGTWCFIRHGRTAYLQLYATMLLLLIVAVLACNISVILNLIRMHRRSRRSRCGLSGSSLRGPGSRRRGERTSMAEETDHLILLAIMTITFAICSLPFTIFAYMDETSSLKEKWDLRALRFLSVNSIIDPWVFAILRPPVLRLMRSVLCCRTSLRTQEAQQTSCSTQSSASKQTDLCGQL
C-terminally FLAG/Myc-tagged GPRC5B (G Protein-Coupled Receptor Class C Group 5 Member B), human (Q9NZH0, residues 29-403): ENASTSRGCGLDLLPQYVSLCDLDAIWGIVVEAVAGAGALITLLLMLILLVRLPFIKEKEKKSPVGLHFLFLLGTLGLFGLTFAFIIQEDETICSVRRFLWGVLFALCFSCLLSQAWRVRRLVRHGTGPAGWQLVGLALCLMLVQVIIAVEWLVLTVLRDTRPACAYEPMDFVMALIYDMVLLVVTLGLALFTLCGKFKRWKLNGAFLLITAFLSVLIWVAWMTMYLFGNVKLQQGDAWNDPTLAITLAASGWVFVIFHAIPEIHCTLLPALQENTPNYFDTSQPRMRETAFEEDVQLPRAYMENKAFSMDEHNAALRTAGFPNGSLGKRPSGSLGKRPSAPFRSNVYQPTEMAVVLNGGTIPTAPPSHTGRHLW
GPRC5B mutant set 2 (F111A), human, C-Myc-FLAG (Q9NZH0-1, form named): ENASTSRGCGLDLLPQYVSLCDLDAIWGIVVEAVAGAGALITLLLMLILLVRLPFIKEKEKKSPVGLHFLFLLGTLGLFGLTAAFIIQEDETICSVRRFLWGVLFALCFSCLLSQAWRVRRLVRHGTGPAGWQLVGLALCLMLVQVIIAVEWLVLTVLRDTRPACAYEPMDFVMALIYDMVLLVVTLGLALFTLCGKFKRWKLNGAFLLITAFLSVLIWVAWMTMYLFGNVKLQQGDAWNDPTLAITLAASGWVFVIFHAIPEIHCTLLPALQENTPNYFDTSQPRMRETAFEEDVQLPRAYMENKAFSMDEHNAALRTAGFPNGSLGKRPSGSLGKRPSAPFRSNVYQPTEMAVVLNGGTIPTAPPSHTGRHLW
GPRC5B mutant set 3 (Q116A, D118A, L128A), human, C-Myc-FLAG (Q9NZH0-1, form named): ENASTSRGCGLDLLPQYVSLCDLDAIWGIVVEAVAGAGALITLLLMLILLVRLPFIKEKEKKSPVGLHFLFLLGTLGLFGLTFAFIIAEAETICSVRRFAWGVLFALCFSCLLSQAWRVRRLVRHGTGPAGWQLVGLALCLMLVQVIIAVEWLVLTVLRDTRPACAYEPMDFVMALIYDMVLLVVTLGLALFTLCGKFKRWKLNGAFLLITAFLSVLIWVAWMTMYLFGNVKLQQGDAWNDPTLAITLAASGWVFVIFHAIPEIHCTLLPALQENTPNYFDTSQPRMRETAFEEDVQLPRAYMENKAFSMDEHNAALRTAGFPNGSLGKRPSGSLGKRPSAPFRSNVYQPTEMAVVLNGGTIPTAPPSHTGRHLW
UniProt P43116: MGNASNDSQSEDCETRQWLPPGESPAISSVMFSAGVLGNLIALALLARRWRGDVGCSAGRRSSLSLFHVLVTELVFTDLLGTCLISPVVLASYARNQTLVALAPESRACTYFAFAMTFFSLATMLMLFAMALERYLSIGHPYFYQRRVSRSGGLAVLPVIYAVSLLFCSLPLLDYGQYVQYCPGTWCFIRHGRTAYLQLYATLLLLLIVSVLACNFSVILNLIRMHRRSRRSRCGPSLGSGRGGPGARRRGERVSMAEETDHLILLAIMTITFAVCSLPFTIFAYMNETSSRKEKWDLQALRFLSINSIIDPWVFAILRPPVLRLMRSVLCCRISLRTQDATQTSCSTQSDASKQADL
UniProt Q13258: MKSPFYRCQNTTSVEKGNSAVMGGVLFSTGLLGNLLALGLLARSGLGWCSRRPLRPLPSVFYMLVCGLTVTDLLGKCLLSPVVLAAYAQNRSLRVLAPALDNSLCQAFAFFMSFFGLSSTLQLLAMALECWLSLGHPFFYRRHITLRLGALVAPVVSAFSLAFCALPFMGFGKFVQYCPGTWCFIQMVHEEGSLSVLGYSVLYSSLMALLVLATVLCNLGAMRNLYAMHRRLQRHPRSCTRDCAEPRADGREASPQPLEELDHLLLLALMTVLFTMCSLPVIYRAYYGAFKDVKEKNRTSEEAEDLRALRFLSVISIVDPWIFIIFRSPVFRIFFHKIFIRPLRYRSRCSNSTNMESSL
UniProt P43119: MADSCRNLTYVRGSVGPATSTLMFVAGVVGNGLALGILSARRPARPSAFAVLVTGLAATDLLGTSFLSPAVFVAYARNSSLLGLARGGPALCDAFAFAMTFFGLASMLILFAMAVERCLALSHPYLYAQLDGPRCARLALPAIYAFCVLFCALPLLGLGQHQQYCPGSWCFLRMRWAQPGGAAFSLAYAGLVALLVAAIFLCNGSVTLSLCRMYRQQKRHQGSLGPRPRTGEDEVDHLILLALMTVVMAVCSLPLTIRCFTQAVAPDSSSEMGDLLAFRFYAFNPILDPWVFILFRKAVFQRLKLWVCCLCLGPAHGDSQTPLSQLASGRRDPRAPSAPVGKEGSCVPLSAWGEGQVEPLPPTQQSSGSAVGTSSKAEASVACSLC
UniProt Q923Z0, residues 29-410: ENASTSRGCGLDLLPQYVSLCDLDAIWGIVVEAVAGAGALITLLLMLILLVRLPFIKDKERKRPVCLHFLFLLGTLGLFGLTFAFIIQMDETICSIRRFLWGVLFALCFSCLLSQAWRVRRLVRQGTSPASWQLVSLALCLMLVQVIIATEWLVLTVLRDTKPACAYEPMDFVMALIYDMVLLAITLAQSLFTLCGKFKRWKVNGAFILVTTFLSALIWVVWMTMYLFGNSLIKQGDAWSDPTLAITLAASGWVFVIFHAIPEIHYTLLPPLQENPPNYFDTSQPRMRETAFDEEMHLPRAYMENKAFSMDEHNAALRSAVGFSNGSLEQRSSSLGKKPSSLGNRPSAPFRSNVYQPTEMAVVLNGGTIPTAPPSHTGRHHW
UniProt P43088: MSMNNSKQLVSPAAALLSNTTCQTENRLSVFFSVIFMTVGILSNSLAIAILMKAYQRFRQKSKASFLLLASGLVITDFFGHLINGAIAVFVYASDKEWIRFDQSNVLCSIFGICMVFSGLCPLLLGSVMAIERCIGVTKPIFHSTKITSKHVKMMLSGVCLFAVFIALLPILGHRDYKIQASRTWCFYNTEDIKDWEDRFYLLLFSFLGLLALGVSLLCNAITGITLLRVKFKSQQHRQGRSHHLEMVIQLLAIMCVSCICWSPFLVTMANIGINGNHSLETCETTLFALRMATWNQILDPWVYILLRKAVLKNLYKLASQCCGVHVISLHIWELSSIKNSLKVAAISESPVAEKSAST
UniProt P21731: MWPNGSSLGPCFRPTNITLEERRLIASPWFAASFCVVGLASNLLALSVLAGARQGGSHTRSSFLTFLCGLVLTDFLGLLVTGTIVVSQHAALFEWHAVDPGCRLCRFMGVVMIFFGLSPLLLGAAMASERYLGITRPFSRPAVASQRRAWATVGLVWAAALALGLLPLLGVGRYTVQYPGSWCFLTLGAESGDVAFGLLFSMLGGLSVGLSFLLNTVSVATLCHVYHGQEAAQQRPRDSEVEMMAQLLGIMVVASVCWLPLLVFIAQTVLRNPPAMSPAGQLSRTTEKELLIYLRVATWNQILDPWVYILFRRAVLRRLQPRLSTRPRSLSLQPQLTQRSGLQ
UniProt P51681: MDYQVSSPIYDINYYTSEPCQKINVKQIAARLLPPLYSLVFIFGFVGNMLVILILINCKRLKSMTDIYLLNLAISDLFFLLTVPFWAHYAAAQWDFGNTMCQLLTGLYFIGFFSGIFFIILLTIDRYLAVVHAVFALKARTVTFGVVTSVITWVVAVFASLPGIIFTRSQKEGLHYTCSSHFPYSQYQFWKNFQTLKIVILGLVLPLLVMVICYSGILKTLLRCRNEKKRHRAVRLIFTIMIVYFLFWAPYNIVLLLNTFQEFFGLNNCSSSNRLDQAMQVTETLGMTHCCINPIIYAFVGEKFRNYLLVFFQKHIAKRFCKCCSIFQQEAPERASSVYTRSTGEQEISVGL
UniProt P35408: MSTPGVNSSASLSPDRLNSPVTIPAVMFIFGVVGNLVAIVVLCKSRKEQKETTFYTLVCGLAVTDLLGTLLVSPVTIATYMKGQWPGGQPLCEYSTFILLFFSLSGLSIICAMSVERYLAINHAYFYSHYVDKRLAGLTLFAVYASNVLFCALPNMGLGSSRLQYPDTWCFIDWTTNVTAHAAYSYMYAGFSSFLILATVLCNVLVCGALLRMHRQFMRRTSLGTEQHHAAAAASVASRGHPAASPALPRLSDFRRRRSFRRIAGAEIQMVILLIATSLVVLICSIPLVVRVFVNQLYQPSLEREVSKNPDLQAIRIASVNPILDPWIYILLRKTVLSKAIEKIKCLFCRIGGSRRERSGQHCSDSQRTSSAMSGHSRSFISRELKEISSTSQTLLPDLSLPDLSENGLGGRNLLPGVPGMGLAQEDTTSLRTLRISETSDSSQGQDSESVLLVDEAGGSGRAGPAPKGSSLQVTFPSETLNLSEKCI

[6] = molecular target: N-terminally HA-tagged prostaglandin E receptor 2 (EP2), human (human) (UniProt P43116); experiment: as above
[7] = molecular target: N-terminally HA-tagged prostacyclin receptor IP, human (human) (UniProt P43119); experiment: as above

## GPRC5B, endogenous in mouse resident peritoneal macrophages (from UniProt Q923Z0 29-410) (receptor)
[1]
  binding: binds

## N-terminally HA-tagged prostaglandin E receptor 2 (EP2), human (from UniProt P43116 1-358)
[2]
  binding: binds

## N-terminally HA-tagged PGF2a receptor FP, human (from UniProt P43088 1-359)
[2]
  binding: no binding

## N-terminally HA-tagged PGD2 receptor DP1, human (from UniProt Q13258-1 1-359)
[2]
  binding: binds

## N-terminally HA-tagged thromboxane A2 receptor TP, human (from UniProt P21731 1-343)
[2]
  binding: no binding

## GPRC5B C-terminally tagged with mCitrine, human (from UniProt Q9NZH0-1 29-403) (receptor)
[3]
  binding: binds

## N-terminally HA-tagged chemokine receptor CCR5, human (from UniProt P51681 1-352)
[2]
  binding: no binding

## C-terminally FLAG/Myc-tagged GPRC5B (G Protein-Coupled Receptor Class C Group 5 Member B), human (from UniProt Q9NZH0-1 29-403)
[4]
  binding: binds
[5]
  binding: binds
[6]
  binding: binds
[7]
  binding: binds

## N-terminally HA-tagged prostaglandin E2 receptor EP4, human (from UniProt P35408 1-488)
[2]
  binding: no binding

## N-terminally HA-tagged prostacyclin receptor IP, human (from UniProt P43119 1-386)
[2]
  binding: binds

## GPRC5B mutant set 2 (F111A), human, C-Myc-FLAG (from UniProt Q9NZH0-1 29-403) (receptor)
[6]
  binding: binds

## GPRC5B mutant set 3 (Q116A, D118A, L128A), human, C-Myc-FLAG (from UniProt Q9NZH0-1 29-403) (receptor)
[6]
  binding: binds

B1: N-terminally HA-tagged prostaglandin E2 receptor EP1, human (receptor, UniProt P34995 1-402)
chain: T1 sequence
[2]
  binding: binds

B2: N-terminally HA-tagged prostaglandin E2 receptor EP3, human (receptor, UniProt P43115 1-390)
chain: MKETRGYGGDAPFCTRLNHSYTGMWAPERSAEARGNLTRPPGSGEDCGSVSVAFPITMLLTGFVGNALAMLLVSRSYRRRESKRKKSFLLCIGWLALTDLVGQLLTTPVVIVVYLSKQRWEHIDPSGRLCTFFGLTMTVFGLSSLFIASAMAVERALAIRAPHWYASHMKTRATRAVLLGVWLAVLAFALLPVLGVGQYTVQWPGTWCFISTGRGGNGTSSSHNWGNLFFASAFAFLGLLALTVTFSCNLATIKALVSRCRAKATASQSSAQWGRITTETAIQLMGIMCVLSVCWSPLLIMMLKMIFNQTSVEHCKTHTEKQKECNFFLIAVRLASLNQILDPWVYLLLRKILLRKFCQIRYHTNNYASSSTSLPCQCSSTLMWSDHLER
[2]
  binding: no binding

B3: N-terminally HA-tagged PGD2 receptor DP2, human (receptor, UniProt Q9Y5Y4 1-395)
chain: MSANATLKPLCPILEQMSRLQSHSNTSIRYIDHAAVLLHGLASLLGLVENGVILFVVGCRMRQTVVTTWVLHLALSDLLASASLPFFTYFLAVGHSWELGTTFCKLHSSIFFLNMFASGFLLSAISLDRCLQVVRPVWAQNHRTVAAAHKVCLVLWALAVLNTVPYFVFRDTISRLDGRIMCYYNVLLLNPGPDRDATCNSRQVALAVSKFLLAFLVPLAIIASSHAAVSLRLQHRGRRRPGRFVRLVAAVVAAFALCWGPYHVFSLLEARAHANPGLRPLVWRGLPFVTSLAFFNSVANPVLYVLTCPDMLRKLRRSLRTVLESVLVDDSELGGAGSSRRRRTSSTARSASPLALCSRPEEPRGPARLLGWLLGSCAASPQTGPLNRALSSTSS
[2]
  binding: no binding
